Laboratory results reported in PubChem BioAssay AID686970 (National Center for Advancing Translational Sciences (NCATS), 2013).
Among all 360,000 compounds or so, about 6,000 (1.7%) were called active. The shares of active, inactive and inconclusive entries below differ from those in the screen. The call rests on the fitted dose curve; in most records, active means well fitted cell-killing curve with a large enough effect; inconclusive means small, poorly fitted or top-dose-only effect, or effect the other way; inactive means flat fitted curve, though single readings scatter. Potencies of inconclusive entries are left out as doubtful fits.

Assay: qHTS for induction of synthetic lethality in tumor cells producing 2HG: qHTS for the HT-1080-NT fibrosarcoma cell line;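 further: NT is the 2HG producing partner of a matched IDH1 knockdown line; nearly all actives have a fitted effect of over 55% in size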;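 on activity, negative = less viability: 0% = DMSO-treated cells and -100% = media-only wells without cells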
Settings: HT-1080-NT fibrosarcoma viability, CellTiter-Glo ATP luminescence, 48 h; activity, negative = less viability: at 46.1 µM (top of the series) unless noted
Summary of the method: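 A 48-hour cytotoxicity screen used HT-1080-NT cells plated 2 hours before compound delivery. ATP-based CellTiter-Glo luminescence measured viability, normalized to DMSO and no-cell controls.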
Potency means the concentration at half of the fitted maximal effect; tags describe the fitted curve by direction and shape.

Compound | Potency | activity, negative = less viability
CCc1ccc(N2C=C(C(=O)OC)C(c3ccccc3F)C(C#N)=C2N)cc1 (configuration not stated) | inconclusive [cytotoxic, single point] | 
CNC(=S)Nc1ccc(N2CCN(c3ccc(C(F)(F)F)cn3)CC2)nc1 |  | inactive: -6.41%
CCc1nc2ccc(C(=O)NCc3ccc(OC)cc3)cn2c1N(CC)Cc1cccc(Br)c1 | inconclusive [cytotoxic, single point] | 
O=C(OCCN(C1=NS(=O)(=O)c2ccccc21)c1ccccc1Cl)c1ccc(Cl)cc1 |  | inactive: -16.4%
CCc1nc2c(OCc3ccc(C(F)(F)F)cc3)cccn2c1N(C)C(=O)c1ccc(OC)cc1 | inconclusive [cytotoxic, single point] | 
CC(C)C(=O)Nc1ccc(-c2nc3ccccc3c(=O)o2)cc1 |  | inactive: 15.2%
COc1cccc(/C=C2/CN(C)CC3=C2OC(N)=C(C#N)C3c2cccc(OC)c2)c1 (configuration not stated) | inconclusive [cytotoxic, single point] | 
Cc1cc(C)c([N+](=O)[O-])cc1NC(=O)CCSc1ccccc1Cl |  | inactive: -4.17%
O=c1[nH]c(=O)n(Cc2ccccc2)c2nc(-c3ccc(Oc4ccc(F)cc4)c([N+](=O)[O-])c3)n(CCO)c12 | active: 20.6 µM | 
COc1cc(/C=N/NC(=S)NC2CC3CC2C2C=CCC32)ccc1O (configuration not stated) | active: 18.4 µM | 
CCCCN(C)C(=O)C1CCN(Cc2ccc(OCc3ccccc3)cc2)CC1 | inconclusive [cytotoxic, partial curve] | 
Cc1cccc(C)c1-n1nnnc1SCc1nc(N)nc(N(C)C)n1 | inconclusive [cytotoxic, full curve] | 
COc1ccc(NC(=O)Cn2nnc(-c3ccccc3NC(=O)c3cccs3)n2)cc1 | inconclusive [cytotoxic, partial curve] | 
Cc1ccc(C)c(N2CCN(C(=O)CCCN3C(=S)NC(C)(C)CC3C)CC2)c1 (configuration not stated) | inconclusive [cytotoxic, single point] | 
O=C(Nc1cccnc1)c1ccc(Oc2ccccc2)cc1 | inconclusive [cytotoxic, single point] | 
Cc1ccc2nc(-c3ccncc3)cc(C(=O)Nc3ccc(OC(F)F)cc3)c2c1 | inconclusive [cytotoxic, partial curve] | 
CCOC(=O)N1CCN(S(=O)(=O)c2ccc(C(=O)Nc3sc4c(c3C(N)=O)CC(C)(C)NC4(C)C)cc2)CC1 | inconclusive [cytotoxic, single point] | 
CC(C)(C)c1ccc(Cn2c(=O)cnc3ccccc32)cc1 | active: 9.2 µM | 
CCSc1cc(N2CCOCC2)nc(-c2ccccc2)n1 |  | inactive: 10.5%
CC(c1ccccc1)N1CCN(C(=O)CCl)CC1 (configuration not stated) | inconclusive [cytotoxic, single point] | 
O=C(Nc1ccc(C(O)c2ccccc2)cc1)[C@@H]1O[C@H](CO)[C@H](O)[C@H](O)[C@H]1O (some centres not stated) | inconclusive [rising, single point] | 

Compound | Potency | activity, negative = less viability
COC(=O)C1=C(C)NC(C)=C(C(=O)OCC(C)C)C1c1ccccc1[N+](=O)[O-] (configuration not stated) | active: 16.4 µM | 
COc1cccc(-c2cc(C(=O)N3CCCCC3C)no2)c1 (configuration not stated) |  | inactive: 19%
CCOc1ccc(C2=Nn3c(nnc3-c3ccc(OC)cc3)SC2)cc1 | inconclusive [cytotoxic, full curve] | 
COc1ccc(CNC(=O)c2ccc(NC(=O)C3CCCO3)cc2)cc1 (configuration not stated) | inconclusive [rising, partial curve] | 
CC(=O)Nc1ccc(Nc2nc(Cl)nc(Nc3ccc(NC(C)=O)cc3)n2)cc1 | inconclusive [cytotoxic, partial curve] | 
O=C(CCSc1nc2ccccc2s1)N/N=C/c1c(O)ccc2ccccc12 |  | inconclusive: -14.4% [cytotoxic]
COc1ccc(CNCC(O)(c2ccc(F)cc2)c2ccc(F)cc2)cc1 | inconclusive [cytotoxic, single point] | 
CC(/C=N/n1c(-c2ccncc2)n[nH]c1=S)=C\c1ccco1 |  | inconclusive: 30.3%
C[C@H]1CN([C@@H](C)CO)C(=O)c2cc(C#CCC3CCCC3)cnc2O[C@@H]1CN(C)C(=O)CC1CC1 |  | inactive: -1.02%
COc1cccc2cc(C(=O)C3=C(O)C(=O)N(c4cc(C)on4)C3c3cccs3)oc12 (configuration not stated) | inconclusive [cytotoxic, single point] | 
CC(C)N(C(=O)[C@H]1C[C@H](CC(=O)NCc2ccco2)C(=O)N2CCc3c([nH]c4cc(-c5ccco5)ccc34)[C@]12C)C(C)C | inconclusive [cytotoxic, partial curve] | 
O=C(CCl)NCCCN(C(=O)C(Cl)Cl)c1ccc([N+](=O)[O-])cc1 | inconclusive [cytotoxic, single point] | 
Cc1ccc(S(=O)(=O)N2CC3C(=O)C[C@@H](c4ccccc4)N(S(=O)(=O)c4cccc(Cl)c4)C3CC2c2ccccc2)cc1 (some centres not stated) |  | inactive: -3.86%
COc1cc(C(=O)O[C@H]2C/C(C)=C/CC[C@]3(C)O[C@@H]3C(O)C2C(C)C)cc(OC)c1OC (some centres not stated) | inconclusive [cytotoxic, partial curve] | 
COc1ccc(-c2cc(C(F)(F)F)n3nc(C(=O)Nc4c(C)n(C)n(-c5ccccc5)c4=O)cc3n2)cc1 |  | inactive: 18%
CCCCn1c(SCc2ccc(C(=O)OC)o2)nc2cc(S(N)(=O)=O)ccc21 | inconclusive [cytotoxic, partial curve] | 
COCCn1c(SCC(=O)Nc2cccc(NC(C)=O)c2)nc2c([nH]c3ccccc32)c1=O |  | inactive: -24%
CCn1c(C)cc(/C=C2/SC(=O)N(C(C)C(=O)OC)C2=O)c1C (configuration not stated) | inconclusive [rising, partial curve] | 
CC(C)c1ccc(NC(=O)Nc2nc(C(N)c3ccccc3)cs2)cc1 (configuration not stated) | inconclusive [cytotoxic, single point] | 
CCCc1nc2c3ccccc3ccn2c1CC(C)(C)C | inconclusive [cytotoxic, single point] | 
CC(C)NC(=O)Cn1cc(C(=O)C(=O)N2CCOCC2)c2ccccc21 |  | inactive: 4.87%
